Data from PMC13083723 (Patterns, 2026).
About 190 (3.5%) of roughly 5,400 compounds showed an effect of 50% or more. Some of the results follow. Starred links: 1 amine or outer side, 2 acyl side, 3 side chain; linkers in the order of their positions; H or OH if unused. Positions of bridges follow the written chain, without caps; N, C: chain ends. Non-standard residues stand in square brackets, D forms with d. Residues, ends and D or L forms follow the SMILES beside them. ξ: configuration not given here. *: point of attachment. pTerphenylCO(4''-OnC5H11) = CCCCCOc1ccc(-c2ccc(-c3ccc(C(=O)*)cc3)cc2)cc1; ξOrn(4,5-diOH) = O=C(C(CC(O)C(O)N[*:3])N[*:1])[*:2]; ξhTyr(βξ-OH,γξ-OH) = NC(C(=O)O)C(O)C(O)c1ccc(O)cc1; ξPro(3ξ-OH,4ξ-Me) = CC1CNC(C(=O)O)C1O; Hyp = O=C(O)[CH]1C[CH](O)CN1

What follows are molecules tested on Vero-E6 (assay: primary screen, phospholipidosis by LipidTOX staining; higher = more effect of the substance). Conditions: 10 µM.
Method in brief: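 Drug-induced phospholipidosis detected with HCS LipidTOX Red reagent in Vero-E6 cells. Compounds tested at 10 μM, with amiodarone (10 μM) as positive control and DMSO (0.1 v/v %) as vehicle.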

Structure (SMILES) | result_ITMP [%]
NC(=O)N[C@@H](CCC(=O)O)C(=O)O | -1.17
CC(C)C(=O)OC[C@@]1(N=[N+]=[N-])O[C@@H](n2ccc(N)nc2=O)[C@H](OC(=O)C(C)C)[C@@H]1OC(=O)C(C)C | -2.06
COCCCC/C(=N\OCCN)c1ccc(C(F)(F)F)cc1 | 48.9
CN1C(=O)c2c(nn(Cc3ccc(-c4cccc(F)n4)cc3)c2Nc2ccccc2)N2C1=N[C@@H]1CCC[C@@H]12 | 37.5
COC(=O)[C@H](c1ccccc1Cl)N1CCc2sccc2C1 | -3.68
COc1ccc(C(=O)CCC(=O)O)c2ccccc12 | -7.01
N/C(=N\Cc1ccccc1)NC(=O)c1nc(Cl)c(N)nc1N | 17.2
O=C(COc1ccc(C(=O)c2ccccc2)cc1)NC1CCN(Cc2ccccc2)CC1 | 8.17
Oc1ncc(N(CCCl)CCCl)c(O)n1 | 8.76
Clc1ccccc1C(c1ccccc1)(c1ccccc1)n1cccn1 | -1.59
NC(=O)c1ccccc1O | -3.89
CC(C)(C)N1CCC(c2ccccc2)(c2ccccc2)CC1 | 4.66
Brc1cc2c(cc1[C@@H]1Nc3ccccc3[C@@H]3C=CC[C@@H]31)OCO2.Brc1cc2c(cc1[C@H]1Nc3ccccc3[C@H]3C=CC[C@H]31)OCO2 | -7.91
O=C(N[C@H]1CN2CCC1CC2)c1cc2cccc(Cl)c2s1 | 100
CC(C)Cc1ccc(C(C)C(=O)NO)cc1 (stereo not shown) | -0.01
O=C(O[C@H]1[C@H](OC(=O)c2cccnc2)[C@@H](OC(=O)c2cccnc2)[C@H](OC(=O)c2cccnc2)[C@@H](OC(=O)c2cccnc2)[C@H]1OC(=O)c1cccnc1)c1cccnc1 | -0.95
O=C(O[C@H]1C[N+]2(CCCOc3ccccc3)CCC1CC2)C(O)(c1cccs1)c1cccs1 | -4.72
O=C(NOCC1CC1)c1ccc(F)c(F)c1Nc1ccc(I)cc1Cl | 1.02
COc1cc2c(c(OC)c1OC)-c1c(cc3c(c1OC)OCO3)C[C@@H](C)[C@@H](C)C2 | -6.33
CC1(C)[C@@H]2C[C@H]1[C@@](C)(O)[C@@H](O)C2 | -2.34
Nc1nc(F)nc2c1ncn2[C@@H]1O[C@H](COP(=O)(O)O)[C@@H](O)[C@@H]1O | 3.27
O=C1[N-]C(=O)C(c2ccccc2)(c2ccccc2)N1 | -1.89
CNc1nc(-c2ccc3c(N)n[nH]c3c2)cc(N2C[C@@H](C(=O)NC3CCCCC3)CC[C@H]2C)n1 | -1.68
Cc1cc(Nc2cc(C)c(C#N)c(NC(C)CCCC(C)(C)O)n2)n[nH]1 (stereo not shown) | 6.88
C[C@]12CC[C@H](O)C[C@H]1CC[C@@H]1[C@@H]2C[C@@H](O)[C@]2(C)[C@@H](C3=CC(=O)OC3)CC[C@]12O | -11
CN1CCN(S(=O)(=O)c2ccc(-c3cnc(N)c(C(=O)Nc4cccnc4)n3)cc2)CC1 | -3.23
COc1ccc(-c2coc3cc(O)ccc3c2=O)cc1 | -8.95

Structure (SMILES) | result_ITMP [%]
CC(N)(C(=O)O)c1ccc(-c2nnn[nH]2)cc1 (stereo not shown) | -9.78
C[C@H](Nc1ncnc2[nH]cnc12)c1cc2ccc(F)cc2nc1-c1ccccn1 [R4A_0002240_001 / SPE_A58947127] | 4.77
Nc1nc(=O)n([C@@H]2O[C@H](CO)[C@@H](O)[C@@H]2F)cc1I | -2.6
Oc1c(Br)cc(Br)c2cccnc12 | -2.78
Nc1ccc2ncnc(NCCc3ccc(Oc4ccccc4)cc3)c2c1 | 1.1
CC(CN(C)C)CN1c2ccccc2Sc2ccccc21 (stereo not shown) [R4A_0005516_001 / SPE_A49225603] | 81.1
CN(C(=O)Cc1ccccc1)C(CN1CCCC1)c1ccccc1 (stereo not shown) | 6.1
O=C(OCCN1CCOCC1)C1(c2ccccc2)CCCCC1 | -1.69
CC(C)C[C@H](NC(=O)[C@H](Cc1ccccc1)NC(=O)c1cnccn1)B(O)O | -11
COC(F)(F)C(Cl)Cl | -4.27
CC(Cc1ccccc1)NCCC(c1ccccc1)c1ccccc1 (stereo not shown) | 33.2
CNc1ncnc2c1ncn2[C@@H]1O[C@H](CO)[C@@H](O)[C@H]1O | -4.94
Cc1ncc([N+](=O)[O-])n1C | 10
O=C(c1ccc(F)cc1)C1CCN(CCCCc2ccccc2)CC1 | 1.69
CC(C)(C)C(=O)OCOC(=O)[C@@H]1N2C(=O)[C@@H](/N=C/N3CCCCCC3)[C@H]2SC1(C)C | -0.91
Cn1nccc1Nc1nccc(-c2ccn([C@H](CO)c3ccc(Cl)c(F)c3)c(=O)c2)n1 [R4A_0003897_001 / SPE_K86309810] | -3.82
OC(CNc1ccccc1)Cn1c2ccc(Br)cc2c2cc(Br)ccc21 (stereo not shown) | -2.55
CC(C)NC(=O)COc1cccc(-c2nc(Nc3ccc4[nH]ncc4c3)c3ccccc3n2)c1 | -0.28
CS(=O)(=O)Nc1cc2occ(NC=O)c(=O)c2cc1Oc1ccccc1 | -8.41
Cc1c(N)nc([C@H](CC(N)=O)NC[C@@H](N)C(N)=O)nc1C(=O)N[C@H](C(=O)N[C@@H](C)[C@H](O)[C@@H](C)C(=O)N[C@@H](C(=O)NCCc1nc(-c2nc(C(=O)NCCC[S+](C)C)cs2)cs1)[C@@H](C)O)C(O[C@H]1O[C@H](CO)[C@H](O)[C@@H](O)[C@H]1O[C@H]1O[C@H](CO)[C@@H](O)[C@H](OC(N)=O)[C@@H]1O)c1c[nH]cn1 (stereo partly shown) | 7.07
N[C@@H](CC(=O)O)C(=O)O | 6.71
N#Cc1ccccc1-c1cc(-c2ccccn2)cn(-c2ccccc2)c1=O | -1.57
C[C@@H](O)[C@H]1C(=O)N2C(C(=O)O)=C(SCCNC=N)C[C@H]12 | 1.46
c1ccc2c(c1)CCCC2C1=NCCN1 (stereo not shown) | -2.4
COc1cccc(CCc2ccccc2OCC(CN(C)C)OC(=O)CCC(=O)O)c1 (stereo not shown) | 64.3
C=C(C)[C@@H]1CC[C@]2(C(=O)O)CC[C@]3(C)[C@H](CC[C@@H]4[C@@]5(C)CC[C@H](O)C(C)(C)[C@@H]5CC[C@]43C)[C@@H]12 | -4.18
O=C1CC2OCC=C3CN4CC[C@]56c7ccccc7N1C5[C@H]2[C@H]3CC46 (stereo partly shown) | 1.13

Structure (SMILES) | result_ITMP [%]
O=c1ccc2cc3ccoc3cc2o1 | -3.37
Nc1nnc(Sc2ncc([N+](=O)[O-])s2)s1 | -17.1
N[C@H](C(=O)O)c1ccc(C(=O)O)c(C(=O)O)c1 | -0.83
N[C@@H](CS)C(=O)O | -1.13
CC(=O)CC(=O)[O-] | 1.77
O=C1NCCN1c1ncc([N+](=O)[O-])s1 | -3.62
C[Se]CC[C@H](N)C(=O)O | -2.64
C1N2CN3CN1CN(C2)C3 | -0.33
Cc1cccc(C)c1NC1=NCCCS1 | 1.07
CCOC(=O)COc1ccc2c(c1)C[C@@H](NC[C@H](O)c1cccc(Cl)c1)CC2 | 13.9
C[C@H]1[C@H](C)CC[C@]2(C(=O)O)CC[C@]3(C)C(=CC[C@@H]4[C@@]5(C)C[C@@H](O)[C@H](O)[C@@](C)(CO)[C@@H]5CC[C@]43C)[C@H]12 | -2.77
CCOCCn1c(C2CCN(CCc3ccc(C(C)(C)C(=O)O)cc3)CC2)nc2ccccc21 | 0.13
O=C1CCC[C@@H]2[C@H]3CCCN4CCC[C@@H](CN12)[C@@H]34 | -5.82
Nc1ccc(S(=O)(=O)NC(=O)c2ccccc2)cc1 | -1.93
CCCCCOc1ccc(-c2ccc(-c3ccc(C(=O)N[C@H]4C[C@@H](O)[C@@H](O)NC(=O)[C@@H]5[C@@H](O)[C@@H](C)CN5C(=O)[C@H]([C@@H](C)O)NC(=O)[C@H]([C@H](O)[C@@H](O)c5ccc(O)cc5)NC(=O)[C@@H]5C[C@@H](O)CN5C(=O)[C@H]([C@@H](C)O)NC4=O)cc3)cc2)cc1 ({pTerphenylCO(4''-OnC5H11)}-[ξOrn(4,5-diOH)]T[Hyp][ξhTyr(βξ-OH,γξ-OH)]T[ξPro(3ξ-OH,4ξ-Me)]; lactam 1-C; configuration not given here) | -3.94
C=C(CC)C(=O)c1ccc(OCC(=O)O)c(Cl)c1Cl | -0.2
CCNC(=O)[C@H]1O[C@@H](n2cnc3c(N)ncnc32)[C@H](O)[C@@H]1O | -1.12
CCCCC/C=C\C/C=C\C/C=C\C/C=C\CCCC(=O)Nc1ccc(O)cc1 | -2.52
CC1(C)N=C(N)N=C(N)N1OCCCOc1cc(Cl)c(Cl)cc1Cl | -6.07
COC(=O)N[C@H](C(=O)N1CC2(CC2)C[C@H]1c1ncc(-c2ccc3c(c2)C(F)(F)c2cc(-c4ccc5nc([C@@H]6[C@H]7CC[C@H](C7)N6C(=O)[C@@H](NC(=O)OC)C(C)C)[nH]c5c4)ccc2-3)[nH]1)C(C)C | 1.95
CC(C)=CCC[C@](C)(O)[C@H]1CC[C@]2(C)[C@@H]1[C@H](O)C[C@@H]1[C@@]3(C)CC[C@H](O[C@@H]4O[C@H](CO)[C@@H](O)[C@H](O)[C@H]4O[C@@H]4O[C@H](CO)[C@@H](O)[C@H](O)[C@H]4O)C(C)(C)[C@@H]3CC[C@]12C | 0.58
Cc1cccc(C)c1NC(=O)c1ccccc1C(=O)O | -7.21
O=C(COc1cccc2c(=O)[nH]ccc12)c1ccccc1 | -1.34
CCNC(=O)[C@H]1O[C@@H](n2cnc3c(N)nc(NCCc4ccc(CCC(=O)O)cc4)nc32)[C@H](O)[C@@H]1O | -4.5
O=C(O)Cn1c(C(=O)Nc2nc(-c3ccccc3Cl)cs2)cc2ccccc21 | 0.39
